Data as given in article PMC4336329 (PLoS ONE, 2015).
Hit rate of the full screen: of about 310,000 compounds, about 14,000 (4.5%) showed an effect of 50% or more. The effect is printed as a negative number. The list shows a part of the results.

molecular target: human ether-à-go-go-related gene (hERG) potassium channel (human, UniProt Q12809); assay: primary screen, population patch clamp on CHO cells stably expressing hERG
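Also: peak tail current of the secondary pulse compared with the same well before compound.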

Sequence of human ether-à-go-go-related gene (hERG) potassium channel (Q12809 whole entry, looked up): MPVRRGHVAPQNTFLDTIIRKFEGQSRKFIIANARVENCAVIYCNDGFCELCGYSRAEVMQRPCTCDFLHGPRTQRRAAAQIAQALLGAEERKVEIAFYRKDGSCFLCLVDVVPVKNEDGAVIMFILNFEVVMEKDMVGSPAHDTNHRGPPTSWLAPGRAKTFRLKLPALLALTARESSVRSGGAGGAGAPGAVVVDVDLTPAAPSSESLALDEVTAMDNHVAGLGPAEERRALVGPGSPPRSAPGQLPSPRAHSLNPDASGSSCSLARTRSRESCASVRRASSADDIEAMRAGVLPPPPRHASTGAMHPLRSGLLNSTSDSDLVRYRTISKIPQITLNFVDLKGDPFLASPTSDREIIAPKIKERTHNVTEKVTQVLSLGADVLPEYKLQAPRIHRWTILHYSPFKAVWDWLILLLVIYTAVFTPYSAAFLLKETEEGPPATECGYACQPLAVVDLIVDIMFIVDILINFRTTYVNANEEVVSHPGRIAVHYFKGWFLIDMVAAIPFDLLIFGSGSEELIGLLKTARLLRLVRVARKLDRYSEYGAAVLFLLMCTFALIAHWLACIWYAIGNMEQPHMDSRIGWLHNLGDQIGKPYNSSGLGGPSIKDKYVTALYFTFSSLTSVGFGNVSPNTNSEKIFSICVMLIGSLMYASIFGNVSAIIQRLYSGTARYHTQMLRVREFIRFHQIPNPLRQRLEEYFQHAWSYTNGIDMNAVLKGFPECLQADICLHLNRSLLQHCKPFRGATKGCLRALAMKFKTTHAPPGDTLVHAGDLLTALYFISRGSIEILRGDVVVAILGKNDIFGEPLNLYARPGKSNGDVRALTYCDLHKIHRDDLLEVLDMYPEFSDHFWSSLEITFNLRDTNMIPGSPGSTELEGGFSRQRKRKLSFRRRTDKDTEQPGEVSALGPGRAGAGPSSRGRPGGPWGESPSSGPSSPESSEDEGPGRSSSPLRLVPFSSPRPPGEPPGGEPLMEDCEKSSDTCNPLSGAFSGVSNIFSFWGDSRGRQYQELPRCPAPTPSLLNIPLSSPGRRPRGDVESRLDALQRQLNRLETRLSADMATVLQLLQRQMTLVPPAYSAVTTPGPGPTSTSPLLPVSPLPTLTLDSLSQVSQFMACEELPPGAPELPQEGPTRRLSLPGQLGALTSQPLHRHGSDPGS

SMILES | hERG current change (%, negative = inhibition) at 10uM [%]
Cc1ccc(NC(=O)CSc2nnc(-c3cnccn3)n2C)cc1C | -5.78
CCN(CC)CCCNC(=O)c1cn(CC(C)C)c(=O)c2c1c1ccccc1n2C | -17.2
O=[N+]([O-])c1ccc(N2N=C(c3ccccc3)CC2c2ccccc2O)cc1 (stereo not shown) | 12.7
COc1ccccc1-c1oc2ccccc2c1C#CCCCCO | 22.6
CS(=O)(=O)N(CC(=O)N1CCC(C(N)=O)CC1)C1CCCCC1 | 4.86
CC(NC(=O)CCc1ccc(S(=O)(=O)NC2CCCCC2)cc1)c1ccccc1 (stereo not shown) | 1.12
Cc1ccc(CS(=O)Cc2ccc(C(=O)NCC(C)c3ccccc3)o2)cc1 (stereo not shown) | -25.8
CC(=O)Nc1nc(C)c(C(C)C)s1 | 7.77
C/C(=N/NC(=O)CNC(=O)c1cccnc1)c1ccc(Cl)c(Cl)c1 | -1.98
O=C(O)C1=C[C@@H](C2CCCCC2)C[C@@H](OCc2ccc(CO)cc2)O1 | 3.31
CCOC(=O)Cc1csc(NC(=O)CN2CCOCC2)n1 | 14.1
CC1CCCCN1C(=S)NC(=O)c1ccccc1 (stereo not shown) | 6.66
O=C(NC1CCS(=O)(=O)C1)/C(=C/c1ccc(Cl)cc1)NC(=O)c1ccccc1 (stereo not shown) | -55
O=C(CNC(=O)c1ccc(-c2ccccc2)cc1)OCc1ccc(Cl)cc1 | 8.06
O=C(COc1ccc2c(-c3ccccc3)cc(=O)oc2c1)NCc1ccccn1 | -10.7
O=Cc1ccc2noc(-c3ccc(F)cc3)c2c1 | -21.3
Cc1ncccc1C(=O)N1CCCC(C(=O)c2ccc3c4c(cccc24)CC3)C1 (stereo not shown) | -13.2
O=C(NCC(c1ccco1)N1CCN(c2ccc(F)cc2)CC1)C(=O)NC1CCCC1 (stereo not shown) | 20
Cc1ccc(-c2nnc3n2CCCCC3)cc1 | 1.57
O=[N+]([O-])c1ccc(S(=O)(=O)N/N=C/c2ccsc2)cc1 | 10.6

SMILES | hERG current change (%, negative = inhibition) at 10uM [%]
Oc1ccc2c(c1)oc1cc(O)ccc12 | 21.2
CCCCNC(=S)N/N=C/c1ccccc1F | 2.81
CN(Cc1ccccc1)C(=O)CCSc1nc(-c2ccc3c(c2)OCO3)cc(C(F)(F)F)n1 | 6.4
COc1cccc2c1OCC(CN1CCN(C3CCCCC3)C(CCO)C1)=C2 (stereo not shown) | -17
COC(=O)CC[C@@H](C(=O)O)N1C(=O)c2ccccc2C1=O | 6.23
O=C(O)Cn1cccc1C(=O)c1ccccc1 | -21.6
CCOC(=O)C(C)Oc1ccc(OCc2ccccc2)cc1 (stereo not shown) | 20.1
CCN(CC)S(=O)(=O)c1ccc(N2CCOCC2)c(NC(=O)CNCCc2ccccc2)c1.O=C(O)C(=O)O | -63.8
CCc1noc(C)c1C(=O)Nc1nc2c(C)cccc2s1 | -4.92
COc1cccc(-c2ccc(-c3noc(-c4ccccc4F)n3)c(OC)n2)c1 | -5.94
NNC(=O)c1cnn(-c2ccccc2)c1C(F)(F)F | 22.7
CC12CN(C(=O)c3ccc([N+](=O)[O-])cc3)CC(C)(CN(C(=O)c3ccc([N+](=O)[O-])cc3)C1)C2=O | -3.28
CCn1cc(C(=O)O)c(=O)c2cc(F)c(N3CCN(C(=S)NC(=O)c4cccc(C)c4)CC3)cc21 | -9.09
C=CCSc1cc(C)nc2c(-c3ccccc3)cnn12 | 12.4
CC(=O)Nc1ccc(NC(=O)Cn2c(-c3ccc(F)cc3)cnc2SCC(=O)Nc2c(C)cccc2C)cc1 | 8.24
Cc1ccc(NC(=O)CCn2cnc3cc(C)c(C)cc32)cc1 | -8.26
O=C(c1ccccc1)c1ccncc1 | -2.74
C=C(C)Cc1c(C)c(C#N)c2nc3ccccc3n2c1N1CCCCC1 | 5.89
C=CCn1c(=O)c(C(=O)Nc2ncccc2O)c(O)c2ccccc21 | 4.9
CCN(Cc1nc2ccccc2c(=O)[nH]1)Cc1cc(=O)oc2cc(OC)ccc12 | -51.1

SMILES | hERG current change (%, negative = inhibition) at 10uM [%]
O=C(Oc1ccc2c(=O)c(Oc3ccc4ccccc4c3)coc2c1)c1ccco1 | -3.89
CN(Cc1ccccc1)S(=O)(=O)c1ccc(Cl)c(C(=O)O)c1 | 9.33
N=C1/C(=C\c2ccc(OC(=O)c3ccc(F)cc3)cc2)C(=O)N=C2SC(N3CCCC3)=NN12 | 7.96
Cc1cc2ccccc2nc1SCC(=O)NC1CCCC1 | -7.01
Cn1cc2cc([N+](=O)[O-])ccc2n1 | -5.35
CN(C[C@H](Cc1ccccc1)N(CCN(CCc1ccccc1)N=O)N=O)N=O.[Na+] | -17.7
CN(C)S(=O)(=O)N1CCC(Oc2cccc(C(=O)N3CCCCCC3)c2)CC1 | 0.0377
CC[n+]1c(C)sc2cc(OC)ccc21.[I-] | 31.4
Cc1cccc(NC(=O)Nc2ccc(C)cc2Br)c1 | 20.5
Cn1c(SCC(=O)c2cc3ccccc3o2)nnc1-c1ccccc1 | -16.1
Cc1ccc(N2C(=O)C3CC3C2=O)cc1 (stereo not shown) | -1.25
CC(=O)Nc1ccc(C)cc1NC(C)=O | 24.3
CC1CCN(C(=O)CSc2nc(N)cc(N)n2)CC1 | -4.5
Cc1cc(-c2ccc(C)c(S(=O)(=O)Nc3ccc(S(N)(=O)=O)cc3)c2)on1 | 5.12
COCCn1c(SCC(=O)Nc2sc(C)c(C)c2C#N)nnc1C(C)C | -3.62
O=c1[nH]c(Cc2ccc(F)cc2)nc2scc(-c3ccc(F)cc3)c12 | 25.6
Cc1cc(C)n2nc3nc(N4CCCC4)nc(-c4ccccc4)c3c2n1 | 7.37
NC(=O)C1(N2CCCCC2)CCN(C(=O)c2cccs2)CC1 | 5.87
